# Laboratory results from the supplement of paper PMC8728848.
# Some of the results follow.
# How the values were obtained:
# Test in all cases: glycan array binding signal (z-score within array); higher = stronger binding
# Details in all cases: glycan notation: IUPAC condensed, linker removed
# [1] = target: Gal(b1-4)GlcNAc(b1-2)Man(a1-6)[GlcNAc(b1-2)Man(a1-3)]Man(b1-4)GlcNAc(b1-4)GlcNAc
# Procedure, shortened: (§1)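 Glycan array binding is given as a within-array Z-score, which can be read as non-binding when negative. The arrays, 3228 of them, came from the Consortium for Functional Glycomics database and were retained only where the protein sequence was available. Z-scores were averaged across arrays of the same protein sequence at different concentrations or buffers and across linkers.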
# [2] = target: Gal(b1-4)GlcNAc(b1-2)Man(a1-6)[Man(a1-3)]Man(b1-4)GlcNAc(b1-4)GlcNAc
# Procedure, shortened: as §1
# [3] = target: Gal(b1-4)GlcNAc(b1-2)[Gal(b1-4)GlcNAc(b1-4)]Man(a1-3)[Gal(b1-4)GlcNAc(b1-2)Man(a1-6)]Man(b1-4)GlcNAc(b1-4)GlcNAc
# Procedure, shortened: as §1
# [4] = target: Gal(b1-4)GlcNAc(b1-2)[Gal(b1-4)GlcNAc(b1-4)]Man(a1-3)[Gal(b1-4)GlcNAc(b1-2)[Gal(b1-4)GlcNAc(b1-6)]Man(a1-6)]Man(b1-4)GlcNAc(b1-4)GlcNAc
# Procedure, shortened: as §1
# [5] = target: Gal(b1-4)GlcNAc(b1-2)[Gal(b1-4)GlcNAc(b1-4)]Man(a1-3)[GlcNAc(b1-4)][Gal(b1-4)GlcNAc(b1-2)Man(a1-6)]Man(b1-4)GlcNAc(b1-4)GlcNAc
# Procedure, shortened: as §1
# [6] = target: Gal(b1-4)GlcNAc(b1-2)[Gal(b1-4)GlcNAc(b1-4)]Man(a1-3)[GlcNAc(b1-4)][Gal(b1-4)GlcNAc(b1-2)[Gal(b1-4)GlcNAc(b1-6)]Man(a1-6)]Man(b1-4)GlcNAc(b1-4)GlcNAc
# Procedure, shortened: as §1
# [7] = target: Gal(b1-4)GlcNAc(b1-2)[Gal(b1-4)GlcNAc(b1-6)]Man(a1-6)[Gal(b1-4)GlcNAc(b1-2)Man(a1-3)]Man(b1-4)GlcNAc(b1-4)GlcNAc
# Procedure, shortened: as §1
# [8] = target: Gal(b1-4)GlcNAc(b1-2)[Gal(b1-4)GlcNAc(b1-6)]Man(a1-6)[GlcNAc(b1-4)][Gal(b1-4)GlcNAc(b1-2)Man(a1-3)]Man(b1-4)GlcNAc(b1-4)GlcNAc
# Procedure, shortened: as §1
# [9] = target: Gal(b1-4)GlcNAc(b1-3)Gal(b1-3)GlcNAc
# Procedure, shortened: as §1
# [10] = target: Gal(b1-4)GlcNAc(b1-3)Gal(b1-4)Glc
# Procedure, shortened: as §1
# [11] = target: Gal(b1-4)GlcNAc(b1-3)Gal(b1-4)GlcNAc
# Procedure, shortened: as §1
# [12] = target: Gal(b1-4)GlcNAc(b1-3)Gal(b1-4)GlcNAc(b1-3)Gal(b1-4)GlcNAc
# Procedure, shortened: as §1
# [13] = target: Gal(b1-4)GlcNAc(b1-3)Gal(b1-4)[Fuc(a1-3)GlcNAc(b1-6)]Gal(b1-4)Glc
# Procedure, shortened: as §1
# [14] = target: Gal(b1-4)GlcNAc(b1-3)Gal(b1-4)[Fuc(a1-3)]GlcNAc(b1-3)Gal(b1-4)[Fuc(a1-3)]GlcNAc
# Procedure, shortened: as §1
# [15] = target: Gal(b1-4)GlcNAc(b1-3)GalNAc
# Procedure, shortened: as §1
# [16] = target: Gal(b1-4)GlcNAc(b1-3)[Gal(b1-4)GlcNAc(b1-6)]Gal(b1-4)GlcNAc
# Procedure, shortened: as §1
# [17] = target: Gal(b1-4)GlcNAc(b1-3)[Gal(b1-4)GlcNAc(b1-6)]GalNAc
# Procedure, shortened: as §1
# [18] = target: Gal(b1-4)GlcNAc(b1-3)[GlcNAc(b1-6)]Gal(b1-4)GlcNAc
# Procedure, shortened: as §1
# [19] = target: Gal(b1-4)GlcNAc(b1-6)Gal(b1-4)GlcNAc
# Procedure, shortened: as §1
# [20] = target: Gal(b1-4)GlcNAc(b1-6)Gal(b1-4)GlcNAc(b1-6)GalNAc
# Procedure, shortened: as §1
# [21] = target: Gal(b1-4)GlcNAc(b1-6)GalNAc
# Procedure, shortened: as §1
# [22] = target: Gal(b1-4)GlcNAc(b1-6)[Gal(b1-3)]GalNAc
# Procedure, shortened: as §1
# Gal(b1-6)Gal = target: Gal(b1-6)Gal
# Procedure, shortened: as §1
# Gal3S(b1-3)GalNAc = target: Gal3S(b1-3)GalNAc
# Procedure, shortened: as §1
# Gal3S(b1-3)GlcNAc = target: Gal3S(b1-3)GlcNAc
# Procedure, shortened: as §1
# [23] = target: Gal3S(b1-3)[Fuc(a1-4)]GlcNAc
# Procedure, shortened: as §1
# Gal3S(b1-4)Glc = target: Gal3S(b1-4)Glc
# Procedure, shortened: as §1
# Gal3S(b1-4)Glc6S = target: Gal3S(b1-4)Glc6S
# Procedure, shortened: as §1
# Gal3S(b1-4)GlcNAc = target: Gal3S(b1-4)GlcNAc
# Procedure, shortened: as §1
# Gal3S(b1-4)GlcNAc6S = target: Gal3S(b1-4)GlcNAc6S
# Procedure, shortened: as §1
# [24] = target: Gal3S(b1-4)[Fuc(a1-3)]Glc
# Procedure, shortened: as §1
# [25] = target: Gal3S(b1-4)[Fuc(a1-3)]Glc6S
# Procedure, shortened: as §1
# Gal3S4S(b1-4)GlcNAc = target: Gal3S4S(b1-4)GlcNAc
# Procedure, shortened: as §1
# Gal3S6S(b1-4)GlcNAc = target: Gal3S6S(b1-4)GlcNAc
# Procedure, shortened: as §1
# Gal3S6S(b1-4)GlcNAc6S = target: Gal3S6S(b1-4)GlcNAc6S
# Procedure, shortened: as §1
# Gal4S(b1-4)GlcNAc = target: Gal4S(b1-4)GlcNAc
# Procedure, shortened: as §1
# Gal4S6S(b1-4)GlcNAc = target: Gal4S6S(b1-4)GlcNAc
# Procedure, shortened: as §1
# Gal6S(b1-3)GlcNAc = target: Gal6S(b1-3)GlcNAc
# Procedure, shortened: as §1
binder,measurement,setting,value
"FedF (Escherichia coli), Q47212 (protein) MRLKYILIIPLLLISLSVFASTLQVDKSVSYDWINSSASSAQVTGTLLGTGKTNTTQMPALYTWQHQIYNVNFIPSSSGTLTCQAGTILVWKNGRETQYALECRVSIHHSSGSINESQWGQQSQVGFGTACGNKKCRFTGFEISLRIPPNAQTYPLSSGDLKGSFSLTNKEVNWSASIYVPAIAKSYRLDTSITLPDTVNLKQNQATPVYYTFSAPSVSNTITGIPNQNDMPSSNVKLTIGPIQSKTTALYVQPDATGSWYDLSKSITMTVVKSSMLNFKGINAKPGNVTLSVPIVFEIQ",glycan array binding signal (z-score),[1],-0.17
same,glycan array binding signal (z-score),[2],-0.136
same,glycan array binding signal (z-score),[3],-0.154
same,glycan array binding signal (z-score),[4],-0.12
same,glycan array binding signal (z-score),[5],-0.185
same,glycan array binding signal (z-score),[6],-0.179
same,glycan array binding signal (z-score),[7],-0.145
same,glycan array binding signal (z-score),[8],-0.158
same,glycan array binding signal (z-score),[9],-0.106
same,glycan array binding signal (z-score),[10],-0.369
same,glycan array binding signal (z-score),[11],-0.452
same,glycan array binding signal (z-score),[12],-0.258
same,glycan array binding signal (z-score),[13],-0.17
same,glycan array binding signal (z-score),[14],-0.114
same,glycan array binding signal (z-score),[15],-0.31
same,glycan array binding signal (z-score),[16],-0.091
same,glycan array binding signal (z-score),[17],-0.249
same,glycan array binding signal (z-score),[18],-0.065
same,glycan array binding signal (z-score),[19],-0.182
same,glycan array binding signal (z-score),[20],-0.413
same,glycan array binding signal (z-score),[21],-0.168
same,glycan array binding signal (z-score),[22],-0.225
same,glycan array binding signal (z-score),Gal(b1-6)Gal,-0.213
same,glycan array binding signal (z-score),Gal3S(b1-3)GalNAc,-0.186
same,glycan array binding signal (z-score),Gal3S(b1-3)GlcNAc,0.263
same,glycan array binding signal (z-score),[23],0.257
same,glycan array binding signal (z-score),Gal3S(b1-4)Glc,0.692
same,glycan array binding signal (z-score),Gal3S(b1-4)Glc6S,1.04
same,glycan array binding signal (z-score),Gal3S(b1-4)GlcNAc,0.14
same,glycan array binding signal (z-score),Gal3S(b1-4)GlcNAc6S,0.729
same,glycan array binding signal (z-score),[24],-0.151
same,glycan array binding signal (z-score),[25],0.114
same,glycan array binding signal (z-score),Gal3S4S(b1-4)GlcNAc,-0.156
same,glycan array binding signal (z-score),Gal3S6S(b1-4)GlcNAc,0.537
same,glycan array binding signal (z-score),Gal3S6S(b1-4)GlcNAc6S,1.97
same,glycan array binding signal (z-score),Gal4S(b1-4)GlcNAc,0.01
same,glycan array binding signal (z-score),Gal4S6S(b1-4)GlcNAc,0.385
same,glycan array binding signal (z-score),Gal6S(b1-3)GlcNAc,-0.141
